Article PMC6919601, “Identification of Plasmodium dipeptidyl aminopeptidase allosteric inhibitors by high throughput screening” (PLoS ONE, 2019)
The campaign covered roughly 110,000 compounds. About 230 (0.21%) showed an effect of 50% or more. The list shows a part of the results.

biological target: DPAP1 (Plasmodium falciparum, UniProt Q8IIJ9); test: primary screen, percent inhibition; read by cleavage of a fluorogenic dipeptide substrate; higher = more effect of the substance; parameters: species or system P. falciparum D10 trophozoite lysates; single well
Sequence (Q8IIJ9 whole entry, looked up): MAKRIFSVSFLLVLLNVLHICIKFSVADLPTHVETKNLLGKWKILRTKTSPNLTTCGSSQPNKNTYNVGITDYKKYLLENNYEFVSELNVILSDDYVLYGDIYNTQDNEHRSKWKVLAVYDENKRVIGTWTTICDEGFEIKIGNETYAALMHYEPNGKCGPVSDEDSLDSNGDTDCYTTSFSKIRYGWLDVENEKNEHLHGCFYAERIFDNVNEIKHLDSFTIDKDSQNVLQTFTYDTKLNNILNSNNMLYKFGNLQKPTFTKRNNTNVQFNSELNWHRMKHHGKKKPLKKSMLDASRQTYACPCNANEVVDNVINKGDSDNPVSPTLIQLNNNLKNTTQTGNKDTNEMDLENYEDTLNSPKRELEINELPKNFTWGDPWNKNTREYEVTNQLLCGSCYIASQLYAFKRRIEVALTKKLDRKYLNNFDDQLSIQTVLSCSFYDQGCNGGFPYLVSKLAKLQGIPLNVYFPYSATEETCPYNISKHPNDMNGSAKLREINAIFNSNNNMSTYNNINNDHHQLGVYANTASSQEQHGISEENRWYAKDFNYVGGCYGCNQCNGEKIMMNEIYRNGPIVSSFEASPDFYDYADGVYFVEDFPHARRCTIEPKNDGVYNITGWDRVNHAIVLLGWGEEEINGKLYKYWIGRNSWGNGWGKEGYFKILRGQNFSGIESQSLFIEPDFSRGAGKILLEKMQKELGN
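Note: 30 min substrate incubation versus DMSO and 10 µM JCP410 controls.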

Compound	% Inhibition @ 10 uM
CN(C)c1ccc2c(c1)OC(N)=C(C#N)C2c1ccccc1Cl (stereo not drawn)	-5.48%
Cc1ccc(C)c(OCC(=O)Nc2nonc2NC(=O)COc2cc(C)ccc2C)c1	6.86%
Cc1cc(-n2c(SCc3cc(=O)n4ccccc4n3)nc3nnc(C)c-3c2N)ccc1Cl	1.2%
Cc1cccc(NC(=O)c2cccc(Cl)c2)n1	-3.34%
Cc1cccc(NC(=O)CSc2ncn(-c3ccccc3)n2)c1	19.1%
COc1ccc(C2CC(c3ccccc3)=NN2C(=O)c2cc(OC)c(OC)c(OC)c2)cc1 (stereo not drawn)	-0.273%
Cc1ccc(-c2cc(C(=O)N3N=C(C(F)F)CC3(O)C(F)F)c3ccccc3n2)s1 (stereo not drawn)	1.38%
N#Cc1c2c(c(N3CCOCC3)n3c1nc1ccccc13)CCC2	3.65%
Cc1cc(C)c(C#N)c(Nc2ccc(F)cc2)n1	-1.79%
Cc1ccc(S(=O)(=O)N(C)CC(=O)Nc2ccc(Br)cc2F)cc1	-4.31%
COc1cccc(OC)c1C(=O)Nc1ccc(Br)cc1F	-9.81%
OCCCNc1ncnc2c1c(-c1ccccc1)cn2-c1cccc(C(F)(F)F)c1	7.04%
CCC(C(=O)Nc1ccc(C(C)=O)cc1)c1ccccc1 (stereo not drawn)	6.3%
COc1cccc(-n2c(SCC(=O)NCCC3=CCCCC3)nc3nnc(C)c-3c2N)c1	-2.17%
CCOC(=O)c1ccc(-c2ccc(C=C3C(=O)NC(=O)NC3=O)o2)cc1	-0.769%
COc1ccc(NCc2c(F)cccc2F)c(OC)c1	3.15%
CC(=O)N(CC(=O)O)CC1(c2ccc(Cl)s2)CCCCC1	2.32%
COc1cc(OC)c(C2C(C#N)=C(N)Oc3c2c(=O)oc2ccccc32)cc1Br (stereo not drawn)	1.96%
Cc1oc(-c2cccs2)nc1CSCC(=O)N1CCCC1	-8.34%
CCOc1ccccc1C1NC(=O)NC(C)=C1C(=O)OC (stereo not drawn)	3.32%
Cc1ccc(C(=O)OC2=C(c3ccccc3)C(=O)c3ccccc3C2=O)cc1	-5.51%
COc1ccc(C2CC(c3ccccc3)=NN2c2ccccc2C(=O)O)cc1 (stereo not drawn)	-2.59%
CCOc1ccc(N2C(=O)CC(N(Cc3ccc4c(c3)OCO4)C(C)=O)C2=O)cc1 (stereo not drawn)	-14.6%
O=C(O)c1cnc2ccc(Cl)cc2c1O	1%
COc1ccccc1-c1c(C)nn2c(NCCN3CCN(Cc4ccccc4)CC3)cc(C)nc12	1.55%
O=C1NC(=O)C(=Cc2c3ccccc3cc3ccccc23)C(=O)N1	22.5%

Compound	% Inhibition @ 10 uM
CC1CCCCN1CCCn1cnc2c3ccccc3nc-2c1O (stereo not drawn)	4.8%
O=C1C(c2cc(O)c3ccccc3n2)=C(O)c2ccccc21	3.67%
CN1C(C(=O)Nc2cccnc2)=CC(c2cccs2)=NS1(=O)=O	-2.84%
COc1cc(NC(=O)c2cccnc2)c(OC)cc1NC(C)=O	-2.94%
CN(C)CCCN(CCCN(C)C)Cc1ccccc1C(F)(F)F	-5.42%
O=C1c2ccccc2C(=O)N1Cc1c(Cl)cccc1Cl	1.72%
Cc1cc2c(cc3c(=O)n(CC(=O)NCc4ccccn4)ncn32)s1	-7.47%
C=C1C2(C(=O)Nc3cccc(C(C)=O)c3)CCC(C2)C1(C)C (stereo not drawn)	0.983%
CN(Cc1ccco1)C(=O)c1ccc(CNS(=O)(=O)c2ccc(Br)cc2)cc1	-7.16%
Cc1ccccc1CSCC(=O)NCc1ccco1	-6.7%
CCN1CCN(c2ncccn2)CC1	-1.99%
CCCc1ccc(C2C(C#N)=C(N)Oc3[nH]nc(C)c32)s1 (stereo not drawn)	1.08%
CCCCCc1ccc(C2=NNC(=O)CC2)cc1	4.98%
COc1ccc(N2CCN(C(=O)c3ccccc3C(=O)O)CC2)cc1	5.07%
Cc1ccc(Cn2ccc(NC(=O)c3cc(-c4ccco4)on3)n2)cc1	1.23%
Cc1ccc(C(C)C)c(OCC(=O)Nc2sc(C)c(C)c2C(N)=O)c1	13.9%
CC(C)(CN1CCCC1)NC(=O)c1ccc2ccccc2n1	-0.0678%
c1ccc2[nH]c(CCc3nc4ccccc4[nH]3)nc2c1	4.6%
Cc1ccc(S(=O)(=O)n2nc(-c3ccco3)nc2NCc2ccc(Cl)cc2)cc1	3.51%
CC1(C)Cc2nc3sc4c(N(CCO)CCO)ncnc4c3cc2CO1	-4.18%
Cc1ccc(-n2nc(C)c3c(C(=O)NCCN4CCCCCC4)cc(C)nc32)cc1	-3.1%
O=C(CN1C(=O)S/C(=C/c2ccccc2F)C1=O)N1CCOCC1	-4.91%
COc1cccc(CN(C(=O)COc2ccc(C)cc2)C2CCS(=O)(=O)C2)c1 (stereo not drawn)	-1.35%
Cc1ccc(S(=O)(=O)N(CC(=O)N2CCCCCC2)c2ccccc2)cc1	-7.8%
Cc1cccc2c1-c1sc(C(=O)N(CCCOC(C)C)Cc3ccco3)cc1CO2	1.7%
